{"source": "patent US20240002501A1", "about": "(Memorial Sloan Kettering, published 2024)", "binders": {"B1": {"name": "huE71-BsAb (huE71-huOKT3) (bispecific antibody, human IgG1, kappa, N297A)", "heavy": "QVQLVQPGDELVKPGASVKLSCKASGYTFTSYWMQWVKQRPGQGLEWIGEINPSNGRTNYNEMFKSKAVLSVDKSVSTAYMQLSSLTAEDTAVYYCALYDGYYAMDYWGQGTLVTVSSASTKGPSVFPLAPSSKSTSGGTAALGCLVKDYFPEPVTVSWNSGALTSGVHTFPAVLQSSGLYSLSSVVTVPSSSLGTQTYICNVNHKPSNTKVDKRV[human IgG1 Fc with N297A K322A (EU numbers) not shown]", "light": "DIVMTQSPSSLAVSVGERVTMSCKSSQSLLYSSNQKNYLAWYQQKPGQSPKLLIYWASTRESGVPDRFSGSGSGTDFTLTISSVKAEDVALYYCQQYHSYPFTFGQGTKLEIKRTVAAPSVFIFPPSDEQLKSGTASVVCLLNNFYPREAKVQWKVDNALQSGNSQESVTEQDSKDSTYSLSSTLTLSKADYEKHKVYACEVTHQGLSSPVTKSFNRGECTSGGGGSGGGGSGGGGSQVQLVQSGGGVVQPGRSLRLSCKASGYTFTRYTMHWVRQAPGKCLEWIGYINPSRGYTNYNQKFKDRFTISRDNSKNTAFLQMDSLRPEDTGVYFCARYYDDHYSLDYWGQGTPVTVSSGGGGSGGGGSGGGGSGGGGSGGGGSGGGGSDIQMTQSPSSLSASVGDRVTITCSASSSVSYMNWYQQTPGKAPKRWIYDTSKLASGVPSRFSGSGSGTDYTFTISSLQPEDIATYYCQQWSSNPFTFGCGTKLQITR", "notes": "IgG-scFv format: huOKT3 scFv fused to the C-terminus of the huE71 light chain by a (G4S)3 linker; also called humanized E71-BsAb"}}, "key": {"[1]": {"biological_target": "T1, L1-CAM on L1-CAM(+) human tumor cells (human, UniProt P32004 20-1257)", "assay": "cell-based or functional assay"}, "[2]": {"biological_target": "T1, L1-CAM on L1-CAM(+) human tumor cells", "T1 sequence (P32004 20-1257 limits assumed)": "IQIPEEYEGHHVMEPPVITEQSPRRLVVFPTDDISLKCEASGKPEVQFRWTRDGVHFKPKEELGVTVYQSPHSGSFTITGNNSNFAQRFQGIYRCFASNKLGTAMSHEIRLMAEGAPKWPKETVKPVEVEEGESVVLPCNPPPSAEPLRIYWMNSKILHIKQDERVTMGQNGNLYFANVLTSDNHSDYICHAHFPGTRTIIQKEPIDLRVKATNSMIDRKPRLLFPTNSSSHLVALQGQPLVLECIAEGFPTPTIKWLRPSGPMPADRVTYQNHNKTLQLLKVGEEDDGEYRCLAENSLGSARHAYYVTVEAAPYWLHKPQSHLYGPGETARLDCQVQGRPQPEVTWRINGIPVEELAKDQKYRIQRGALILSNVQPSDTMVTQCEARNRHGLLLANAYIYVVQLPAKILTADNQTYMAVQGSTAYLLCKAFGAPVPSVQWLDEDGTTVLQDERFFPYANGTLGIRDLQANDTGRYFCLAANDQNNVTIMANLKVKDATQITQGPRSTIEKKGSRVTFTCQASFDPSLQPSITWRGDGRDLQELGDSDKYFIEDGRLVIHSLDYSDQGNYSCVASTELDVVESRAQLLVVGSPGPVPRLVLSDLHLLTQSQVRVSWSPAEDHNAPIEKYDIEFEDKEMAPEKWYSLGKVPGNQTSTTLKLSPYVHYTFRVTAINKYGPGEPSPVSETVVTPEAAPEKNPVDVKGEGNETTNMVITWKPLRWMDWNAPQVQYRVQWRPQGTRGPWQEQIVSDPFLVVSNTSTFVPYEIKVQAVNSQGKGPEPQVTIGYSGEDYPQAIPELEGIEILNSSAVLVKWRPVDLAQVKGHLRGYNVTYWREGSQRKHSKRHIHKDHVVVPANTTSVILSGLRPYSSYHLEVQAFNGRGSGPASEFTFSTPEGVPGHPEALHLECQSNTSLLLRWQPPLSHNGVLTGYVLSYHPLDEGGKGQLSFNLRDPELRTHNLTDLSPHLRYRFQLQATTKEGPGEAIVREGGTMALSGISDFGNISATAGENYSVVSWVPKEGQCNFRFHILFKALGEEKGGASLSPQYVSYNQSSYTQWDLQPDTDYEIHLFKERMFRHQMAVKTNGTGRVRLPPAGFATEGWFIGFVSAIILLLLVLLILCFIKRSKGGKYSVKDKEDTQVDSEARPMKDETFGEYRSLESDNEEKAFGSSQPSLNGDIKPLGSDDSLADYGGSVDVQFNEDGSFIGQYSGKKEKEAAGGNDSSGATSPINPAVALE", "assay": "cell-based or functional assay", "remark": "listed apart in the source"}, "[3]": {"biological_target": "T2, L1-CAM-Fc (UniProt P32004 20-1120, limits assumed)", "T2 construct": "also called antigen L1-CAM-Fc; not shown: Fc part", "assay": "SPR (Biacore T100), L1-CAM-Fc immobilised on CM5 chip", "procedure": "In Vitro Binding Kinetics by Biacore T-100 Biosensor (GE Healthcare, Uppsala, Sweden). CM5 sensor chip (Research grade) and related reagents were purchased from Biacore USA (Piscataway, NJ). Antigen L1-CAM-Fc or L1-CAM-His was directly immobilized onto the CM5 sensor chip according to the manufacturer's instructions. Purified monoclonal antibodies (MoAbs) (mouse, chimeric IgG1 and IgG4, and humanized IgG1 and IgG4 versions of E71 and E72, and their IgG1n glycoforms) were diluted in HBS-EP buffer at varying concentrations (41.7˜666.7 nM) prior to analysis. Samples were injected over the sensor surface at a flow rate of 30 μl/min over 1 min. Association time was set for 1 min, dissociation time was set for from 5 min to 15 min. At the end of each cycle, the surface was regenerated using 50 mM NaOH at a flow rate of 50 μl/min over 1 min. The data were analyzed by the bivalent analyte model and default parameter setting for the rate constants using the Biacore T-100 evaluation software, and the apparent association on rate constant (kₒₙ), dissociation off rate constant (koff) and equilibrium dissociation constant (Kd=koff/kₒₙ) were calculated.\nThe binding of huE71-BsAb and huE72-BsAb to both target cells and effector cells was tested by FACS immunostaining. huE71-BsAb was equally efficient as parental huE71 in binding to L1-CAM(+) neuroblastoma BE(2)C, whereas the binding of huE72-BsAb to BE(2)C was half of that observed with huE71-BsAb (FIG. 38(A)). For binding to CD3(+) T cells, both huE71-BsAb and huE72-BsAb were less efficient compared to huOKT3 IgG1; around 20 fold weaker than huOKT3 (FIG. 38(B)). The reduced avidity of the light chain-anchored scFv of the BsAbs for T cells was attributable in part to the spatial constraints of this format, but is advantageous for minimizing cytokine release especially when target cells were not present."}}, "data": [{"binder": "B1", "values": [{"measurement": "T cell cytotoxicity EC50, 4-hour 51Cr release assay, activated T cells (E:T ratio=10:1), IMR32-luciferase cell line", "setting": "[1]", "value": 0.0629, "unit": "nM"}, {"measurement": "EC50 of T cell cytotoxicity (4 h 51Cr release, E:T 10:1) on BE(1)N neuroblastoma cells (L1CAM MFI 614)", "setting": "[2]", "value": 0.016, "unit": "nM"}, {"measurement": "EC50 of T cell cytotoxicity (4 h 51Cr release, E:T 10:1) on BE(2)C neuroblastoma cells (L1CAM MFI 608)", "setting": "[2]", "value": 0.05, "unit": "nM"}, {"measurement": "EC50 of T cell cytotoxicity (4 h 51Cr release, E:T 10:1) on BE(2)S neuroblastoma cells (L1CAM MFI 166)", "setting": "[2]", "value": 0.251, "unit": "nM"}, {"measurement": "EC50 of T cell cytotoxicity (4 h 51Cr release, E:T 10:1) on HTB24 breast CA cells (L1CAM MFI 431)", "setting": "[2]", "value": 0.056, "unit": "nM"}, {"measurement": "EC50 of T cell cytotoxicity (4 h 51Cr release, E:T 10:1) on HTB26 breast CA cells (L1CAM MFI 33)", "setting": "[2]", "value": 0.056, "unit": "nM"}, {"measurement": "EC50 of T cell cytotoxicity (4 h 51Cr release, E:T 10:1) on IMR32 LUC neuroblastoma cells (L1CAM MFI 285)", "setting": "[2]", "value": 0.062, "unit": "nM"}, {"measurement": "EC50 of T cell cytotoxicity (4 h 51Cr release, E:T 10:1) on MCF7 breast CA cells (L1CAM MFI 54)", "setting": "[2]", "value": 0.158, "unit": "nM"}, {"measurement": "EC50 of T cell cytotoxicity (4 h 51Cr release, E:T 10:1) on NB1691 neuroblastoma cells (L1CAM MFI 742)", "setting": "[2]", "value": 0.031, "unit": "nM"}, {"measurement": "EC50 of T cell cytotoxicity (4 h 51Cr release, E:T 10:1) on NMB7 neuroblastoma cells (L1CAM MFI 224)", "setting": "[2]", "value": 0.056, "unit": "nM"}, {"measurement": "EC50 of T cell cytotoxicity (4 h 51Cr release, E:T 10:1) on SKMEL5 melanoma cells (L1CAM MFI 269)", "setting": "[2]", "value": 0.02, "unit": "nM"}, {"measurement": "EC50 of T cell cytotoxicity (4 h 51Cr release, E:T 10:1) on SKMEL28 melanoma cells (L1CAM MFI 184)", "setting": "[2]", "value": 0.15, "unit": "nM"}, {"measurement": "EC50 of T cell cytotoxicity (4 h 51Cr release, E:T 10:1) on SKNMM LUC neuroblastoma cells (L1CAM MFI 598)", "setting": "[2]", "value": 0.094, "unit": "nM"}, {"measurement": "EC50 of T cell cytotoxicity (4 h 51Cr release, E:T 10:1) on SKNSH neuroblastoma cells (L1CAM MFI 23)", "setting": "[2]", "value": 0.158, "unit": "nM"}, {"measurement": "Kd", "setting": "[3]", "value": 5.15, "unit": "nM"}, {"measurement": "koff", "setting": "[3]", "value": 0.000339, "unit": "s⁻¹"}, {"measurement": "kon", "setting": "[3]", "value": 65800, "unit": "M⁻¹ s⁻¹"}]}]}
